Some of the results follow. The full chains were built here from the parent and the listed change. Values near 0.05 are background.
B1: TEV protease; numbered along this chain (parent)
chain: MGESLFKGPRDYNPISSSICHLTNESDGHTTSLYGIGFGPFIITNKHLFRRNNGTLVVQSLHGVFKVKDTTTLQQHLVDGRDMIIIRMPKDFPPFPQKLKFREPQREERICLVTTNFQTKSMSSMVSDTSCTFPSGDGIFWKHWIQTKDGQCGSPLVSTRDGFIVGIHSASNFTNTNNYFTSVPKNFMELLTNQEAQQWVSGWRLNADSVLWGGHKVFMVKPEEPFQPVKEATQL

Variants of: B1
Assay: raw area under fraction-flipped curve 0-4 h after induction (AUC4h, not background-subtracted), DNA-recorder readout of cleavage of the substrate (dimensionless); higher = more cleavage of the substrate by the protease variant
Conditions: temperature: 34 °C; time window: 0-4 h after rhamnose induction
Description: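 In vivo DNA recorder in E. coli TOP10(DE3) ΔrhaA at 34 °C. Each TEVp single-site mutant (parent TEVp 0) is paired with a single-site variant of the 7-mer TEVs (canonical ENLYFQ|S). The substrate sits between flexible linkers in a Bxb1-sfGFP-TEVs-SsrA fusion, so cleavage stabilises Bxb1 and speeds flipping of a recombination array, read by NGS. The value is the raw area under the fraction-flipped curve over 0-4 h after rhamnose induction (AUC4h), with ≥20 reads per time point. It is not background-subtracted; inactive controls average about 0.047.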
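Note: Bxb1 expression induced with 0.2% (w/v) L-rhamnose at OD600 near 0.5, cultures sampled hourly, flipped fraction per protease–substrate barcode pair counted by paired-end Illumina sequencing.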

Row | Variant | area with substrate ENLYFAS | area with substrate ENLYFCS | area with substrate ENLYFES | area with substrate ENLYFHS | area with substrate ENLYFIS | area with substrate ENLYFKS | area with substrate ENLYFNS | area with substrate ENLYFPS | area with substrate ENLYFTS | area with substrate ENLYFVS | area with substrate ENLYFWS | area with substrate ENLYFFS | area with substrate ENLYFLS | area with substrate ENLYFMS | area with substrate ENLYFRS | area with substrate ENLYFSS | area with substrate ENLYFYS | area with substrate ENLYFDS | area with substrate ENLYFGS
1 | MGESLFKGPRDYNPISSSICHLTNESDGHTTSLYGIGFGPFIITNKHLFRRNNGTLVVQSLHGVFKVKDTTTLQQHLVDGRDMIIIRMPKDFPPFPQKLKFREPQREEAICLVTTNFQTKSMSSMVSDTSCTFPSGDGIFWKHWIQTKDGQCGSPLVSTRDGFIVGIHSASNFTNTNNYFTSVPKNFMELLTNQEAQQWVSGWRLNADSVLWGGHKVFMVKPEEPFQPVKEATQL [R109A] | 0.0462 | 0.0715 | 0.0721 | 0.0484 | 0.0572 | 0.0582 | 0.0659 | 0.0583 | 0.0574 | 0.0601 | 0.0574 | – | – | – | – | – | – | – | –
2 | MGESLFKGPRDYNPISSSICHLTNESDGHTTSLYGIGFGPFIITNKHLFRRNNGTLVVQSLHGVFKVKDTTTLQQHLVDGRDMIIIRMPKDFPPFPQKLKFREPQREERICLVTTNFQTKSMSSMVSDTSCTFPSGDGIFWKHWIQTKDGQCGSPLVSTRDGFIKGIHSASNFTNTNNYFTSVPKNFMELLTNQEAQQWVSGWRLNADSVLWGGHKVFMVKPEEPFQPVKEATQL [V165K] | 0.0568 | 0.0578 | 0.0637 | 0.0527 | 0.048 | – | 0.0733 | 0.0576 | – | 0.0856 | – | 0.0543 | 0.0593 | 0.0587 | 0.0561 | 0.0421 | – | – | –
3 | MGESLFKGPRDYNPISSSICHLTNESDGHTTSLYGIGFGPFIITNKHLFRRNNGTLVVQSLHGVFKVKDTTTLQQHLVDGRDMIIIRMPKDFPPFPQKLKFREPQREERICLVTTNFQTKSMSSMVSDTACTFPSGDGIFWKHWIQTKDGQCGSPLVSTRDGFIVGIHSASNFTNTNNYFTSVPKNFMELLTNQEAQQWVSGWRLNADSVLWGGHKVFMVKPEEPFQPVKEATQL [S130A] | 0.0571 | 0.0676 | 0.0383 | 0.0626 | 0.0483 | – | – | 0.0619 | 0.0649 | 0.0798 | 0.0568 | 0.0645 | 0.0529 | 0.0584 | – | 0.0633 | 0.0515 | – | –
4 | MGESLFKGPRDYNPISSSICHLTNESDGHTTSLYGIGFGPFIITNKHLFRRNNGTLVVQNLHGVFKVKDTTTLQQHLVDGRDMIIIRMPKDFPPFPQKLKFREPQREERICLVTTNFQTKSMSSMVSDTSCTFPSGDGIFWKHWIQTKDGQCGSPLVSTRDGFIVGIHSASNFTNTNNYFTSVPKNFMELLTNQEAQQWVSGWRLNADSVLWGGHKVFMVKPEEPFQPVKEATQL [S60N] | 0.0613 | 0.0023 | 0.0678 | 0.0697 | 0.0588 | – | 0.0584 | 0.0589 | 0.0474 | – | – | 0.0752 | 0.0557 | 0.0606 | – | 0.0703 | – | 0.0709 | –
5 | MGESLFKGPRDYNPISSSDCHLTNESDGHTTSLYGIGFGPFIITNKHLFRRNNGTLVVQSLHGVFKVKDTTTLQQHLVDGRDMIIIRMPKDFPPFPQKLKFREPQREERICLVTTNFQTKSMSSMVSDTSCTFPSGDGIFWKHWIQTKDGQCGSPLVSTRDGFIVGIHSASNFTNTNNYFTSVPKNFMELLTNQEAQQWVSGWRLNADSVLWGGHKVFMVKPEEPFQPVKEATQL [I19D] | 0.0438 | 0.047 | 0.0391 | 0.0514 | 0.0388 | 0.0603 | 0.0492 | 0.0497 | 0.0492 | 0.0371 | – | 0.0341 | 0.0471 | 0.0421 | 0.0354 | 0.0384 | 0.0254 | 0.0441 | –
6 | MGESLFKGPRDYNPISSSICHLTNESDGHTTSLYGIGFGPFIITNKHLFRRNNGTLVVQSLHGVFKVKDTTTLQQHLVDGRDMIIIRMPKDFPHFPQKLKFREPQREERICLVTTNFQTKSMSSMVSDTSCTFPSGDGIFWKHWIQTKDGQCGSPLVSTRDGFIVGIHSASNFTNTNNYFTSVPKNFMELLTNQEAQQWVSGWRLNADSVLWGGHKVFMVKPEEPFQPVKEATQL [P94H] | 0.0573 | 0.0623 | 0.0681 | 0.0643 | 0.0544 | – | – | 0.0617 | – | – | – | – | – | 0.0589 | 0.0559 | – | – | – | –
7 | MGESLFKGPRDYNPISSSICHLTNESDGHTTSLYYIGFGPFIITNKHLFRRNNGTLVVQSLHGVFKVKDTTTLQQHLVDGRDMIIIRMPKDFPPFPQKLKFREPQREERICLVTTNFQTKSMSSMVSDTSCTFPSGDGIFWKHWIQTKDGQCGSPLVSTRDGFIVGIHSASNFTNTNNYFTSVPKNFMELLTNQEAQQWVSGWRLNADSVLWGGHKVFMVKPEEPFQPVKEATQL [G35Y] | 0.034 | – | 0.052 | – | 0.0322 | 0.0656 | 0.0391 | 0.0507 | – | – | – | – | – | – | – | – | 0.0351 | – | –
8 | MGESLFKGPRDYNPISSSICHLTNESDGHTTSLYGIGFGPFIITNKHLFRRNNGTLVVQSLHGVFKVKDTTTLQQHLVDGRDMIIIRMPKYFPPFPQKLKFREPQREERICLVTTNFQTKSMSSMVSDTSCTFPSGDGIFWKHWIQTKDGQCGSPLVSTRDGFIVGIHSASNFTNTNNYFTSVPKNFMELLTNQEAQQWVSGWRLNADSVLWGGHKVFMVKPEEPFQPVKEATQL [D91Y] | 0.0504 | 0.0623 | – | 0.0637 | 0.0733 | 0.0445 | – | – | – | – | – | 0.0571 | 0.0606 | – | – | – | – | – | –
9 | MGESLFKGPRDYNPISSSICHLTNESDGHTTSLYGIGFGPFIITNKHLTRRNNGTLVVQSLHGVFKVKDTTTLQQHLVDGRDMIIIRMPKDFPPFPQKLKFREPQREERICLVTTNFQTKSMSSMVSDTSCTFPSGDGIFWKHWIQTKDGQCGSPLVSTRDGFIVGIHSASNFTNTNNYFTSVPKNFMELLTNQEAQQWVSGWRLNADSVLWGGHKVFMVKPEEPFQPVKEATQL [F49T] | 0.057 | 0.0405 | 0.051 | – | 0.0524 | 0.054 | 0.0623 | 0.0733 | – | 0.0519 | 0.0487 | 0.07 | – | 0.0579 | – | – | 0.0579 | 0.0632 | 0.0533
10 | MGESLFKGPRDYNPISSSICHLTNESDGHTTSLYGIGFGPFIITNKHLFRRNNGTLVVQSLHGVFKVKDTTTLQQHLVDGRDMIIIRMPKDFPPFPQKLKFREPQREERICLVTTNFQTKSMSSMVSDTSCTFPSGDGIFWKHWIQTKDGQCGSPLVSTRDGFIVGIHSASNFTNTNNYFTSVPKNFMELLTNQEAQQWVSGWRLNADSVLWGGHKVFMVKPEEPFQPVKEATPL [Q234P] | 0.0586 | – | 0.0572 | 0.061 | 0.0519 | 0.0628 | 0.0644 | 0.0567 | 0.0552 | 0.0546 | – | 0.0827 | – | 0.0781 | 0.067 | – | – | – | 0.057

— the supplement of paper PMC12217912
